Experimental findings from ChEMBL document CHEMBL1201862, “PubChem BioAssay data set” (2004) are described below.

“And” between values parts separate entries of the source, which are not always exact repeats. Equal values may be shown once.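 These data come from cells grown in 96-well plates and exposed to compound for 48 hours at five concentrations. Abbreviation: GI50, concentration required for 50% inhibition of growth.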 The source made the active and inactive calls. Rule as the data show it: active = GI50 up to about 1.1 µM and inactive = higher.

This experiment has as its system NCI-H322M. As to the kind of experiment: NCI-60 cell line screen, 48 h.
As for `Cc1cc(C)nc(NS(=O)(=O)c2ccc(NC(=O)c3cccn4c(=O)c5ccccc5nc34)cc2)n1`, the GI50 was inactive: > 100 µM.

For the compound `C1=N\CCOCC/N=C\c2ccc(cc2)OCc2cccc(n2)COc2ccc/1cc2`, the GI50 is inactive: > 100 µM.

As to `CCOC(=O)CC[C@H](NC(=O)c1nc[nH]c1/N=N/N(C)C)C(=O)OCC`, the GI50 is inactive: > 100 µM.

For the compound `CC12CCC(C(=O)OC1=O)C2(C)C` (stereo not drawn), the GI50 is inactive: > 100 µM.

For the compound `O=[N+]([O-])c1ccc(-c2ccc([C@H]3CC(c4cc(F)c(Cl)cc4Cl)=NN3)o2)cc1`, the GI50 is active: 0.94 µM.

Turning to `COc1cc2nc(-c3cccs3)nc(N3CCN(c4ccccc4)CC3)c2cc1OC`, the GI50 was inactive: > 100 µM.

For the compound `Cc1ccc(CN2CCN(Cc3ccc(C)o3)C(C)C2)o1` (stereo not drawn), the GI50 was inactive: > 100 µM.

With `CN(C)C(=S)/N=c1\ssc(=S)n1C`, the GI50 is inactive: > 100 µM.

On to `C=CCCC(On1c(-c2ccc(Cl)cc2)csc1=S)c1ccccc1` (stereo not drawn), for which the GI50 is inactive: > 100 µM.

For the compound `O=C1OC(c2ccccc2)=N/C1=C\c1ccc([N+](=O)[O-])cc1`, the GI50 is inactive: > 100 µM.

For `CC(=O)Nc1ccc(C(=O)N2N=C(C)/C(=C/c3ccc(O)cc3)C2=O)cc1`, the GI50 was inactive: 89.5 µM.

Regarding `C=CCNC(=O)N(CCCC(NC(C)=O)C(=O)NCc1ccccc1)Cc1ccccc1` (stereo not drawn), the GI50 was inactive: > 100 µM.

Turning to `O=C1c2ccccc2C(=O)c2cc(/N=N/c3c(O)ccc4ccccc34)ccc21`, the GI50 was inactive: > 100 µM.

With `C=CCOC1=C(OCC=C)C(C2COC(C)(C)O2)OC1=O` (stereo not drawn), the GI50 is inactive: > 100 µM.

As for `C=CCOCn1cc(F)c(=O)[nH]c1=O`, the GI50 was inactive: > 100 µM.

For the compound `Cc1nc2cc(/N=N/c3c(C)noc3C)ccc2[nH]1`, the GI50 is inactive: 23.9 µM.

In the case of `CC1CNC(NS(=O)(=O)c2cc(C(=O)Nc3ccc(F)cc3)c(Cl)cc2S)=NN1` (stereo not drawn), the GI50 is inactive: 54.3 µM.

On to `COc1ccc2nc(-n3c(/C=C/c4ccccc4O)nc4ccccc4c3=O)sc2c1`, for which the GI50 is inactive: 52.1 µM.

Regarding `CCOC(=O)C(C)NC(=O)N(C)C12CC3CC(CC(C3)C1)C2` (stereo not drawn), the GI50 was inactive: 490 µM.

On to `N#C/C(=C\c1ccc(Br)cc1)c1nc(-c2cc3ccccc3oc2=O)cs1`, for which the GI50 was inactive: 34.5 µM.

As to `CCOC(=O)NC(=O)c1cn(C2CCCCC2)c(=O)n(C)c1=O`, the GI50 was inactive: > 100 µM.

For `COC(CN(C(C)=O)C1CCC2(SCCS2)c2[nH]c3ccccc3c21)OC` (stereo not drawn), the GI50 was inactive: > 100 µM.

Take `CCC1(c2ccccc2)C(=O)N=C(c2ccccc2)N1CCc1ccccc1` (stereo not drawn): the GI50 was inactive: > 100 µM.

Consider `O=c1nc2n(c3nsnc13)CCO2`, for which the GI50 is inactive: > 100 µM.

Consider `CC(=O)c1c(-c2ccco2)c(C#N)c(=S)n(C2OC(CO)C(O)C(O)C2O)c1C` (stereo not drawn), for which the GI50 was inactive: > 100 µM.

As to `[N-]=[N+]=Nc1c(C=O)c(=O)n2c3c(cccc13)CCC2`, the GI50 is inactive: 17.6 µM.

Regarding `CC(C)(C)[Si](C)(C)OCCOCn1cc(F)c(=O)[nH]c1=O`, the GI50 was inactive: > 100 µM.

Turning to `CCOc1cc(C2CC(c3ccc(NS(=O)(=O)c4cc([N+](=O)[O-])ccc4C)cc3)=NN2S(=O)(=O)c2cc([N+](=O)[O-])ccc2C)ccc1O` (stereo not drawn), the GI50 was inactive: 64.3 µM.

Take `O=C1C(Cl)=C(c2ccc([N+](=O)[O-])cc2)C(=O)c2c(O)cccc21`: the GI50 is inactive: 2.94 µM.

As for `CCC(/C=C/c1ccccc1)=N\Nc1ccc(Cl)c(Cl)c1`, the GI50 was inactive: 37.6 µM.

With `N#CNCC(COCc1ccccc1)c1ccccc1` (stereo not drawn), the GI50 was inactive: > 100 µM.

Take `CC(=O)OC1COC(n2c(N)c(C#N)c(-c3ccccc3)c(C#N)c2=S)C(OC(C)=O)C1OC(C)=O` (stereo not drawn): the GI50 is inactive: 73.5 µM and inactive: 52.6 µM.

With `C1CNCCNCCNCCN1`, the GI50 was inactive: > 100 µM.

Consider `O=c1c2c3c(sc2nc(CN2CCNCC2)n1-c1ccccc1)CCCC3`, for which the GI50 is inactive: > 100 µM.

As to `COC(=O)c1ccc(N/C=C(/C#N)c2ccsc2)cc1`, the GI50 is inactive: 16.8 µM.

With `CN(C)C(=O)C1CCC(=C2C(=O)OC(C)(C)OC2=O)N1C` (stereo not drawn), the GI50 is inactive: > 100 µM.

For the compound `COc1ccc(-c2c(C#N)c(N)nc3c2CCS(=O)(=O)c2ccccc2-3)cc1`, the GI50 was inactive: > 100 µM.

`O=C1c2ccccc2C(=O)N1/N=C1/SC(=N\c2ccccc2)/C(=N/c2ccccc2)N1c1ccccc1`: the GI50 is inactive: > 100 µM.

As to `CC[C@H](C)[C@H]1NC(=O)C(C(C)=O)=C1O`, the GI50 is inactive: > 100 µM.

Turning to `CC(C)Cc1ccc(C(C)/C=C2\CCC(CN3CCOCC3)C2=O)cc1` (stereo not drawn), the GI50 was inactive: 18 µM.

Turning to `O=[N+]([O-])c1ccc(NC2OCC(O)C(O)C2O)cc1` (stereo not drawn), the GI50 was inactive: > 100 µM.

`CC12Nc3ccccc3C1=C(c1ccccc1)CC1C(=O)OC(=O)C12` (stereo not drawn): the GI50 is inactive: > 100 µM.

On to `CC(C)C1NC(=O)CC(c2ccccc2)N(N=O)C1c1ccccc1` (stereo not drawn), for which the GI50 is inactive: > 100 µM.

For `O=C(O)c1ccccc1.[Ag]`, the GI50 was inactive: 44 µM.

For `O=C(O)C(CO)NC(=O)C1C(C(=O)O)C(c2ccccc2[N+](=O)[O-])C=C(c2ccco2)N1c1ccncc1` (stereo not drawn), the GI50 was inactive: 11 µM.

For `O=C(O)c1c[nH]c2c(=O)[nH]cnc12`, the GI50 is inactive: > 100 µM.

Consider `COC1/C=C/C(C)C(OC)CC(O)/C=C/C(C)C(C(C)C(OC)C(C)CCC(=O)C(C)C(C/C=C/N(C)C=O)OC)OC(=O)/C=C/C=C(\C)CC(OC)C(OC)C2=CC(=O)O[C@@H](C(C)C(OC)C1)[C@H]2O` (stereo partly drawn), for which the GI50 was active: 0.0649 µM.

Regarding `CC1=C(Br)C(=O)c2c(O)ccc(O)c2C1=O`, the GI50 is inactive: 1.61 µM.

Turning to `COCC(=O)[C@]1(O)Cc2c(O)c3c(c(O)c2[C@@H](OC2CC(N)C(O)C(C)O2)C1)C(=O)c1c(OC)cccc1C3=O` (stereo partly drawn), the GI50 was active: 0.143 µM.

Consider `O=NN(CCCl)C(=O)N[C@H]1CCCC[C@@H]1Cl`, for which the GI50 is inactive: > 100 µM.

Turning to `COc1ccccc1NC(=O)/C(Cc1nc2ccc([N+](=O)[O-])cc2nc1O)=N\NC(=O)C[N+](C)(C)C`, the GI50 is inactive: > 100 µM.

As for `O=C(Nc1c(Cl)cc([N+](=O)[O-])cc1Cl)/C(=N\Nc1cccc(Cl)c1)c1c(O)c2ccccc2oc1=O`, the GI50 is inactive: > 100 µM.

In the case of `NC(=O)/C(=N\NC(=O)c1cc2ccccc2cc1O)C1C(=O)N(c2ccccc2)N=C1N` (stereo not drawn), the GI50 was inactive: 35.8 µM.

For `COC(=O)CCC(=O)Nc1ccc(Cl)cc1C`, the GI50 was inactive: > 73.5 µM.

On to `CS(=O)(=O)OCCN(CCOS(C)(=O)=O)c1ccc(/C=N/c2ccc(-c3csc(COc4ccccc4)n3)cc2)cc1`, for which the GI50 is inactive: 10.7 µM.

`Nc1cc(N2CCOCC2)nc(=O)n1-c1ccccc1`: the GI50 is inactive: > 100 µM.

Regarding `CCN(CC)CCOC(=O)c1ccc(N)cc1.CCOC(=O)Nc1ccc(S(=O)(=O)OC)cc1.CCOC(=O)Nc1ccc(S(=O)(=O)OC)cc1.Nc1ccc(C(=O)O)c(O)c1`, the GI50 is inactive: > 100 µM.

`O=C(CCN(CCO)CCO)Nc1ccc2c(c1)C(=O)c1ccc(NC(=O)CCN(CCO)CCO)cc1C2=O`: the GI50 was inactive: 29.9 µM.
